Test results reported in PubChem BioAssay AID1159614 (National Center for Advancing Translational Sciences (NCATS), 2016).
Screen size: about 45,000 compounds; about 65 (0.1%) were called active. Calls come from the whole dose curve; as a rule, active = well fitted activation curve with a large enough effect; inconclusive = small, poorly fitted or top-dose-only effect; inactive = no such curve, though single readings can be large or run the other way. The list shows a part of the results.

Target: Galactocerebrosidase (Homo sapiens) (UniProt P54803)
Experiment: A Novel Cell-Based Assay to Identify Small Molecules for B -Galactocerebrosidase; note: 0% is about no effect; nearly all actives have a fitted effect of over 65% in size
Details: 145M-Twi-hGALC-G270D cells (Twitcher mouse brain line with human GALC G270D), HMU-beta-Gal fluorescence, 48 h; series mostly up to 57.5 µM; activation: at the top concentration
How it was run: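 Fluorogenic HMU-b-Gal hydrolysis (0.1 mM final, pH 5.2 citrate-phosphate with 1 mg/mL sodium taurocholate; carbonate stop buffer) measures mutant GALC activity after compound treatment of live 145M-Twi Twitcher brain cells stably carrying human GALC-G270D, with wild-type GALC line alongside; activation sought.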

Sequence of UniProt P54803 (P54803 whole entry, looked up): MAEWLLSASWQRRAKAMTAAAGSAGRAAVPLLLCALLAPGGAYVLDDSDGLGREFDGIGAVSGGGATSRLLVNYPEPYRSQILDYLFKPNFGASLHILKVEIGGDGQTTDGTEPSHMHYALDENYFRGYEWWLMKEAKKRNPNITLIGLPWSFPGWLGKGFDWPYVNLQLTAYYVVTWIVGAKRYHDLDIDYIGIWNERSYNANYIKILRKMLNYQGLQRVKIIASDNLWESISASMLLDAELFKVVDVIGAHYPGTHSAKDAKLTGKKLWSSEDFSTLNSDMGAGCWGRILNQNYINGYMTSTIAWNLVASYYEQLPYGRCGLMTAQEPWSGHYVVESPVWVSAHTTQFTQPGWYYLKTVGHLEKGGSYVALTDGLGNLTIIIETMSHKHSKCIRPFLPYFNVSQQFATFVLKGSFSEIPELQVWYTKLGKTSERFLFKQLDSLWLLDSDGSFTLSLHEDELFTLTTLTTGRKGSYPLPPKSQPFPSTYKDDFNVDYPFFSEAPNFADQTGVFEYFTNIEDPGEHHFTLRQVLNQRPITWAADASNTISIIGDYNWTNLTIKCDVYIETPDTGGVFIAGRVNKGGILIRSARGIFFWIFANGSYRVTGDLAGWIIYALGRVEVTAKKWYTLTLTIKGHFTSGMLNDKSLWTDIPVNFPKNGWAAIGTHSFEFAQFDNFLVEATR

activation, inactive:
CCc1cccc(C)c1NC(=O)CSc1nc2ccccc2nc1Cc1ccccc1 -3.72%
Cc1ccc(NC(=O)c2oc3ccc(S(=O)(=O)N4CCC5(CC4)OCCO5)cc3c2C)cc1Cl 10.8%
CC(=O)N1CCC(N(CCCOC(C)C)C(=O)Nc2ccc(C)c(C)c2)CC1 -8.77%
COc1ccc(-c2nc3cc(NC(=O)COc4ccccc4C)ccc3o2)cc1 -1.23%
COc1ccc(CCNC(=O)CN(c2ccccc2)S(=O)(=O)N(C)C)cc1OC 2.06%
COc1cc(C(c2c(C)[nH][nH]c2=O)c2c(C)[nH][nH]c2=O)ccc1OC(=O)c1ccccc1OC -18.4%
COC(=O)CC1Oc2ccccc2-n2cc(-c3ccc(F)cc3)nc21 (stereo not given) -8.75%
CCOC(=O)C(C)NC(=O)c1c2c(nc3ccccc13)C(=O)N(C1CCCCC1)C2 (stereo not given) -10.6%
CCc1c(C)sc2c1CCN(Cc1ccc(C#N)cc1)C2c1ccccc1 (stereo not given) -7.08%
O=C(CN1C(=O)CCSc2ccc(S(=O)(=O)N3CCCC3)cc21)Nc1cccc(F)c1 -12.8%
Cc1cccc(N(C)S(=O)(=O)c2cc(-c3cnc(C4CC4)o3)ccc2C)c1 -26.3%
Cc1ccc(Cl)cc1-n1nnc(-c2nc(-c3ccc4c(c3)OCO4)no2)c1C -25%
COc1ccc(Nc2nn3c(=O)c4cc5c(cc4nc3s2)OCO5)c(OC)c1 -16.4%
CCC(=O)N1c2ccc(S(=O)(=O)CCC(=O)Nc3ccc(OC)cc3OC)cc2CC1C (stereo not given) -14.3%
CCc1ccc(C2c3c(-c4ccccc4O)n[nH]c3C(=O)N2Cc2cccnc2)cc1 (stereo not given) -10.1%
CCOc1ccc(/C=C/C(=O)Nc2ccc3nc(N(CC)CC)cc(C)c3c2)cc1OC -19.6%
O=C(CCNS(=O)(=O)c1ccc2c(c1)CCN2C(=O)C1CC1)N1CCN(c2cccc(Cl)c2)CC1 -29.6%
CC(C)CCNC(=O)C1CCN(C(=O)c2cc3sccc3n2Cc2ccc(Cl)cc2)CC1 -16.1%
COc1ccc(-c2nc(CS(=O)CC(=O)NCCc3ccc(Cl)cc3)c(C)o2)cc1OC (stereo not given) -20.1%
CCc1ccc(-n2nc(CO)c(C(=O)NC)n2)cc1 5.02%
Cc1ccc(CS(=O)(=O)c2ncc(Cl)c(C(=O)Nc3nnc(C(C)C)s3)n2)cc1 -18.6%
CCN1CCN(c2ncc3c(n2)CCN(Cc2ccccc2C)C3)CC1 -11.2%
CCC(=O)N1CCc2cc(CNS(=O)(=O)c3ccc(CC(C)C)cc3)ccc21 0.808%
Oc1c(C(c2ccc(F)cc2)N2CCN(Cc3ccccc3)CC2)sc2nc(-c3ccco3)nn12 (stereo not given) -3.15%
CCCCNC(=O)CCCN1C(=O)c2ccccc2Sc2ncccc21 -11.3%
CN1C(=O)C2(c3ccccc31)N(c1cccc(C(F)(F)F)c1)C(=O)CS2(=O)=O (stereo not given) -23.1%
Cc1cccc(N2CCN(C(=O)Cn3c(-c4cccs4)cc4ccccc43)CC2)c1C -6.51%
COc1cc(CN(C(=O)c2ccccc2F)C2CCS(=O)(=O)C2)cc(OC)c1OC (stereo not given) -28.5%
CCCS(=O)(=O)N1CC(=O)N(c2ccc(C)c(Cl)c2)C(C)(C(=O)NC2CCCCCC2)C1 (stereo not given) -12.2%
Cc1ccc(C)c(N2C(=O)N(Cc3c(F)cccc3Cl)c3ccccc3S2(=O)=O)c1 6.46%
COc1ccc(N(CC(=O)Nc2ccc(C)c(C)c2)S(=O)(=O)c2ccc(C)cc2)cc1OC -12%
Cc1cccc(C)c1NC(=O)CN1C(=O)CCSc2ccc(S(=O)(=O)N3CCCC3)cc21 -11.7%
COC(=O)c1cc(NC(=O)Nc2ccc3snnc3c2)cc(C(=O)OC)c1 -4.49%
O=C(COc1ccccc1)Nc1sc2c(c1C(=O)Nc1ccccc1Cl)CCCCC2 -6%
CCN(Cc1nc(-c2cccc(C)c2)no1)S(=O)(=O)c1ccc(C)cc1 -5.41%
CC(=O)OCc1cc(=O)n2nc(C3CCCCC3)sc2n1 -5.47%
Cc1ccccc1-c1noc(-c2ccc(N3CCN(c4ccccc4)CC3)c([N+](=O)[O-])c2)n1 3.97%
COc1ccc(CNC(=O)Cn2nc(C)n3cccc3c2=O)cc1 -13.2%
COc1ccc(-c2nc(SCC(=O)NC3CCCC3)c(-c3ccc(OC)cc3)[nH]2)cc1 -23.6%
COc1ccccc1N1CCN(C(=O)c2cc3c(=O)n(C)c4ccccc4c3s2)CC1 -11.8%
CCc1cccc2c(CCO)c[nH]c12 -10.1%
Cc1ccc(NC(=O)C(=O)NCC(c2cccnc2)N2CCOCC2)cc1 (stereo not given) -8.39%
CC1CCN(C(=O)c2ccc3c(c2)N(Cc2ccccc2F)C(=O)c2ccccc2S3(=O)=O)CC1 -3.44%
COc1ccc(S(=O)(=O)n2nc(C)c(S(=O)(=O)N3CCCCC3)c2C)cc1 -19.2%
Cc1c(Cl)cccc1-n1ncc(C(=O)N2CCN(C)CC2)c1C1CCN(C(=O)OC(C)(C)C)CC1 19%
CC(=O)c1ccc(N2CCN(c3ncnc4c3c(-c3ccccc3)cn4-c3ccc(C)c(Cl)c3)CC2)cc1 -0.106%
CC(C)Cn1c(=O)c2ccccc2n2c(CCC(=O)N3CCN(c4cccc(Cl)c4)CC3)nnc12 -7.75%
COCCCN(Cc1ccco1)C(=O)c1cc2c(s1)-c1ccccc1OC2 -1.86%
COc1ccccc1-c1noc(-c2ccc(N3CCOCC3)c([N+](=O)[O-])c2)n1 18.8%
CCc1ccc(NC(=O)CC(c2cc(OC)c(OC)c(OC)c2)N2Cc3ccccc3C2=O)cc1 (stereo not given) 3.15%
COc1ccc(CCNC(=O)Cn2cc(C(=O)c3ccc(Cl)cc3)c(=O)c3ccc(C)nc32)cc1OC -6.83%
FC(F)(F)c1cccc(-n2cc(-c3ccccc3)c3c(N4CCCCC4)ncnc32)c1 7.22%
CCOC(=O)C1CCN(c2nc3c(S(=O)(=O)c4ccc(Br)cc4)nnn3c3ccsc23)CC1 -18.1%
CCCN(CCC)CCNC(=O)Cn1cnc2sc(C)c(S(=O)(=O)N3CCC(C)CC3)c2c1=O -26%
COc1ccc(C(=O)NCCn2cc(SCc3cccc(F)c3)c3ccccc32)cc1OC -26.3%
COc1ccccc1CNC(=O)CN1C(=O)CCc2cc(S(=O)(=O)N3CCCCC3)ccc21 7.53%
Cc1ccc(N2CC(C(=O)NCCS(=O)(=O)N3CCN(c4ccccc4)CC3)CC2=O)cc1 (stereo not given) -20.2%
COc1ccc(S(=O)(=O)N(CCc2ccccc2)CC(=O)NCc2ccccc2)cc1 -14.3%
COCCN1C(=O)c2oc3cc(C)cc(C)c3c(=O)c2C1c1cccc(O)c1 (stereo not given) -13.1%
CCOC(=O)c1cccc(NC(=O)Cn2nc3c(cc2=O)CCCC3)c1 -3.67%
CCN(CC)C(=O)CSc1nnc2ccc3ccccc3n12 -10.8%
CCCn1cc(S(=O)(=O)c2cccc(Cl)c2)c(=O)c2cc(F)c(N3CCOCC3)cc21 -9.26%
Cc1ccc(-c2c(CN3CCN(c4cc(C)ccc4C)CC3)csc2C)cc1 -11.5%
Cc1c(C(=O)NC(C)c2ccccc2)sc2ncnc(N(C)C3CCCCC3)c12 (stereo not given) -19.2%
CCc1ccccc1NC(=O)CN1C(=O)CCn2nc(-c3cccn3C)cc21 -8.6%
Cc1ccc(-n2ncc3c(N4CCN(c5ccccc5)CC4)ncnc32)cc1C -9.62%
CCOC(=O)C1CCN(S(=O)(=O)c2cc(-c3onc(C)c3C)ccc2C)CC1 -0.367%
Cc1cccc(NC(=O)CN(c2ccc(C(C)C)cc2)S(=O)(=O)c2c(C)nn(C)c2C)c1C -13.4%
COC(=O)c1c(NC(=O)c2cc(=O)c3c(C)cc(C)cc3o2)sc2c1CCCC2 -9.32%
CCc1ccccc1Nc1cc(C(=O)NCc2ccc(C)cc2)c2ccccc2n1 -10.1%
COc1ccc(N2C(=O)CSC23C(=O)N(C)c2ccccc23)cc1Cl (stereo not given) 4.18%
O=C(c1c2c(nc3ccccc13)C(=O)N(C1CCCCC1)C2)N1CCN(c2ccc(F)cc2)CC1 -8.43%
CCOC(=O)N1CCN(C(=O)c2ccc3c(c2)N(Cc2ccccc2F)C(=O)c2ccccc2S3=O)CC1 (stereo not given) 3.04%
CC(=O)N1CCCc2cc(S(=O)(=O)N3CCC(C(=O)N(Cc4ccccc4)C(C)C)CC3)ccc21 -18.2%
COCCn1c(C)cc(O)c(C(c2ccccc2)N2CCC(C)CC2)c1=O (stereo not given) -13.9%
c1ccc2[nH]c(-c3cscn3)nc2c1 1.93%
CCCOc1ccccc1-c1nc(SCC(=O)c2ccccc2)n[nH]1 -37.1%
Cc1ccc(-c2cc(NC(=O)c3ccccc3Cl)on2)cc1 -24.3%
CCOC(=O)c1c(S(=O)(=O)N2CCCC(C(=O)Nc3ccc(OCC)cc3)C2)c(C)n(C)c1C (stereo not given) -21.9%
CCOc1ccc(NC(=O)c2cc3sc(Cl)cc3n2CC)cc1 -4.99%
COc1ccc(C)cc1Nc1nc2c(S(=O)(=O)c3cccc(Cl)c3)nnn2c2ccsc12 -0.699%
Cc1ccc(S(=O)(=O)c2cn(Cc3cccc(F)c3)c3cc(N4CCCC4)c(F)cc3c2=O)cc1 -15.6%
Cc1cc(C)n(C(C)CC(=O)NCc2ccccc2C)n1 (stereo not given) -14.4%
CC(=O)Nc1ccc(S(=O)(=O)N2CCC(c3ccncc3)CC2)cc1 -9.09%
COc1ccc(Br)cc1C(=O)Nc1ccc2oc(-c3cccnc3)nc2c1 -10.1%
CCCCN(CCCC)c1ncnc2c1cnn2-c1cccc(C)c1 -4.26%
O=C(Nc1ccc(C(=O)N2CCN(c3ccc(F)cc3)CC2)cc1)c1nsc2ccccc12 -8.07%
CCOc1cc(CNS(=O)(=O)c2ccc3c(c2)CC(=O)N3C)cc(OCC)c1OCC -16.8%
CCN1CCN(CCCNC(=O)c2ccc3nc(Cc4ccc(OC)cc4)oc3c2)CC1 -4.06%
COc1ccc(C2CC(=O)Nc3c2c(=O)nc2c(C)cccn32)cc1OC (stereo not given) -6.95%
CCCCC1CCC(C(=O)N2CC(=O)Nc3ccc(F)cc3C2c2ccc(F)cc2)CC1 (stereo not given) -10.6%
COc1ccccc1CNC(=O)Cc1c(C)c2c(cc(C)c3c(C)c(C)oc32)oc1=O -10.9%
CCC1CN(C(=O)NCc2cccc(OC)c2)c2cc(Cl)ccc2O1 (stereo not given) -7.27%
Cc1ccccc1C(=O)c1cccn1CC(=O)NCc1ccc(Cl)cc1 2.36%
COc1ccc(OCc2ccc(-c3nc(C#N)c(N4CCN(C)CC4)o3)o2)cc1 -10.3%
